The values below come from patent US20220403025A1.

The assay has as its target L1 (DV1-GV4) antigen: soluble heterodimeric γδ TCR in leucine zipper format (TRDV1/TRGV4) (human). Briefly: DELFIA affinity ranking with 100 nM biotinylated L1.

L1 (DV1-GV4) antigen: soluble heterodimeric γδ TCR in leucine zipper format (TRDV1/TRGV4) (human), sequence (main, as listed by the source): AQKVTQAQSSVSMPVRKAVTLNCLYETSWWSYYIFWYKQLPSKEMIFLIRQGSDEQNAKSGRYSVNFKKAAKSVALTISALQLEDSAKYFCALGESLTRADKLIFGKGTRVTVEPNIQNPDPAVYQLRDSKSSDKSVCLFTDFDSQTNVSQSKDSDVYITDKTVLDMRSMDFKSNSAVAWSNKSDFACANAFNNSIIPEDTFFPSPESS

B1: 1245_P01_G06 (scFv) (scFv)
scFv: QVQLVESGGGLVKPGGSLRLSCAASGFTFSDYYMSWIRQAPGKGLEWVSYISSSGSTIYYADSVKGRFTISRDNAKNSLYLQMNSLRAEDTAVYYCARHSWNDAFDVWGQGTLVTVSSGGGGSGGGGSGGGAS[about 100 residues not printed]
B1: the DELFIA signal, 100 nM L1 came out at 22500.
